# Test results published in publication PMC4336329 (PLoS ONE, 2015).
# Out of some 310,000 compounds screened, about 2,200 (0.71%) showed an effect of 50% or more. The effect is printed as a negative number. Some of the results follow.
# Target: human ether-à-go-go-related gene (hERG) potassium channel (human, UniProt Q12809)
# Assay: primary screen, population patch clamp on CHO cells stably expressing hERG
# Sequence of human ether-à-go-go-related gene (hERG) potassium channel (Q12809 whole entry, looked up): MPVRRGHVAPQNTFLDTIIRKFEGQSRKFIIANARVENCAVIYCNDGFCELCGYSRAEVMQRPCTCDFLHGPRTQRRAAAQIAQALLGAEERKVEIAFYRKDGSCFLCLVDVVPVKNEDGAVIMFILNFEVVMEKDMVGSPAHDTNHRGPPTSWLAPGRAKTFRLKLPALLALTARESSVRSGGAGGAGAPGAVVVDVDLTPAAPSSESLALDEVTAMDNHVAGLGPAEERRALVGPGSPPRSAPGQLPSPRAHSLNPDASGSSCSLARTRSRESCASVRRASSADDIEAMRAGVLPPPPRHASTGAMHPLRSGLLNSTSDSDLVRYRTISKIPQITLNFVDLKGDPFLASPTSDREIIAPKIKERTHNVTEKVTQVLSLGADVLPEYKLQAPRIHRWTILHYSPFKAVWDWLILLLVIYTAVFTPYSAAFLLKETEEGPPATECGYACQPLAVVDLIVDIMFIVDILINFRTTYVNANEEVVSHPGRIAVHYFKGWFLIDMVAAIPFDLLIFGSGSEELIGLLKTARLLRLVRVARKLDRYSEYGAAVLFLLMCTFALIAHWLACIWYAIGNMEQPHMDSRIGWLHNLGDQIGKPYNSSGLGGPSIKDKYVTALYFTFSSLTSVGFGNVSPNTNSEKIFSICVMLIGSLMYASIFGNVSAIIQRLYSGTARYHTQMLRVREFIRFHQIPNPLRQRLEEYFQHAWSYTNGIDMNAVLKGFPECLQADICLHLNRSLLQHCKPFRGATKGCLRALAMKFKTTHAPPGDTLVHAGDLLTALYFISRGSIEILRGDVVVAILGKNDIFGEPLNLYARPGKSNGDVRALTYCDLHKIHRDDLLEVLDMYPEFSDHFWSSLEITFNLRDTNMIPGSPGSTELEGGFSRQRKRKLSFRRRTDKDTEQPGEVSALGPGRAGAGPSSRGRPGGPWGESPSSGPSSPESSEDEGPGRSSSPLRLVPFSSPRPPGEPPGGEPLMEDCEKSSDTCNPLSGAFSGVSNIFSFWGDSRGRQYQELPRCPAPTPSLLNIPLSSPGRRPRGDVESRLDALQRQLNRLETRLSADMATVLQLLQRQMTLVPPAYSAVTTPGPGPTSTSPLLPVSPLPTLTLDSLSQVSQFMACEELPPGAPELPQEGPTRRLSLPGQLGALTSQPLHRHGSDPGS
row,SMILES,"hERG current change (%, negative = inhibition) at 1uM [%]"
1,COc1cc(NC(=O)c2nn(C)c3c2CS(=O)(=O)c2ccccc2-3)cc(OC)c1,3.64
2,COc1ccc2oc(=O)c(C(=O)NCc3cccnc3)cc2c1,12.8
3,CC(=O)C(Sc1ncnc2c1nnn2-c1ccc(F)cc1)C(=O)N(C)C (centres unmarked),10.9
4,CCCOc1ccc(C(C)=O)cc1CSCCC#N,9.61
5,CC(=O)N1CCc2cc(S(=O)(=O)Nc3ccc(C)cc3)ccc21,13.6
6,CCCN1C(=S)SC(C)(C)C1/[N+]([O-])=C/c1cccnc1 (centres unmarked),-6.75
7,COc1ccc(CC(NC(C)=O)C(=O)NC2CCN(c3c(Cc4ccccc4)c(C)nc4ncnn34)CC2)c(OC)c1 (centres unmarked),10.9
8,Cc1c(NC(=O)C(C)Sc2nnc(-c3ccccc3)o2)c(=O)n(-c2ccccc2)n1C (centres unmarked),5.74
9,COc1ccc(C2=NN(C(=O)CSc3nc4ccccc4s3)C(c3ccc(F)cc3)C2)cc1 (centres unmarked),13.6
10,O=C1C2C(c3ccccc3)CC=CC2[C@H](c2ccc(C(F)(F)F)cc2)N1Cc1ccccc1 (some centres unmarked),-0.0453
11,Cc1ccc2cc3c(NC(=O)CC(C)C)nn(C)c3nc2c1,6.72
12,CCc1c(C)nc2ccc(Br)cc2c1Cl,0.877
13,O=C(Cc1cccc(C(F)(F)F)c1)NCc1ccc(Cl)cc1Cl,3.91
14,Cc1cccn2cc(-c3c[nH]c4ccccc34)nc12,-3.26
15,CC(C)c1ccc(NC(=S)NNC(=O)c2cccs2)cc1,12.8
16,Cc1cc(Br)c(S(=O)(=O)NCc2ccncc2)cc1C,9.59
17,COc1ccc(C(=O)/C=C/Nc2ccc(S(=O)(=O)Nc3ncccn3)cc2)cc1,5.41
18,CC1=C(C(=O)Nc2ccc(C(=O)NCCCN3CCCCC3)cc2)SCCO1,7.81
19,O=C(NC1CCCCNC1=O)c1ccc(Cl)cc1 (centres unmarked),15.1
20,Fc1ccc(-c2cn3cc(C(F)(F)F)cc(Cl)c3n2)cc1,3.46
21,CC(C)CC(NC(=O)c1ccc(Cl)cc1)C(=O)OCC(=O)c1ccc2c(c1)NC(=O)CO2 (centres unmarked),6.16
22,Cc1cc(C)n(-c2ncnc3sc4c(c23)CCCC4)n1,9.93
23,CC1CCOC2(O1)C(=O)N(CN1CCN(c3ccccc3F)CC1)c1ccccc12 (centres unmarked),0.921

row,SMILES,"hERG current change (%, negative = inhibition) at 1uM [%]"
1,COc1cc2[nH]c(=S)nc(NCc3ccccc3)c2cc1OC,14
2,COc1ccccc1-c1nnc(SC(C)C(=O)N2CCOCC2)o1 (centres unmarked),3.17
3,Cl.OCCN1CCN(CCCc2c3c(cc4c2CCC4)CCC3)CC1,12.3
4,CC(=O)c1cccc(NC(=O)C(C)OC(=O)CCCN=C2NS(=O)(=O)c3ccccc32)c1 (centres unmarked),15.6
5,CC(=C/c1ccccc1)/C=N/NC(=O)c1cccs1,11
6,COc1cccc(-c2ccc3c(c2)S(=O)(=O)c2cccc(C(=O)O)c2C3=O)c1OC,10.7
7,Cc1ccc(C(C(=O)NC2CCCCC2)N(Cc2cccnc2)C(=O)C2COc3ccccc3O2)o1 (centres unmarked),-22.1
8,COCCNC(=O)c1cccc(OC2CCN(Cc3ccc(F)cc3OC)CC2)c1,10.6
9,Cc1cccc(NC(=O)Cn2cnc3c(oc4ccccc43)c2=O)c1C,10.8
10,Cc1cc([N+](=O)[O-])nn1CCCC(=O)NCc1ccccc1,7.3
11,COc1ccc(C2=NOC(C(=O)N(C)Cc3ccccc3)C2)cc1 (centres unmarked),7.36
12,CCOC(=O)N1N=C(c2ccc(C)cc2)CC1(O)C(F)(F)F (centres unmarked),6.52
13,Cn1cccc1C(=O)OCc1csc(-c2ccccc2)n1,11.5
14,COc1ccc(NC(=O)CCCCCN2C(=O)[C@@H]3Cc4ccccc4CN3C2=O)cc1Cl,-0.184
15,Cc1ccc(NC(=S)NC2CCCC2)cc1,7.44
16,O=C(COC(=O)C1CCN(S(=O)(=O)c2cccs2)CC1)Nc1ccccc1,7.75
17,CNc1nnc(-c2ccc(N(C)C)cc2)s1,8.56
18,Cc1cc(Cl)cc(Br)c1OCCCNCC(C)O (centres unmarked),12
19,CCOC(=O)c1cnc2ccccc2c1NCc1ccco1,-14.7
20,COc1ccc(NC(=O)C2CCCN2C(=O)NCc2ccccc2)c(OC)c1 (centres unmarked),13.7
21,CCC(=O)Nc1c(C(=O)N2CCN(c3ccccn3)CC2)cnn1-c1ccc(C)cc1,2.22
22,CN(C1CCCCC1)S(=O)(=O)c1ccc(Cl)c(C(=O)O)c1,5.14
23,CC(=O)C1=C(O)C(=O)N(c2cccnc2)C1c1ccc(Cl)cc1 (centres unmarked),6.38

row,SMILES,"hERG current change (%, negative = inhibition) at 1uM [%]"
1,Cc1ccc(NC(=O)CSc2nc(NS(=O)(=O)c3ccc(C)cc3)cc(=O)[nH]2)cc1,3.39
2,CCc1cc2c(CN3CCN(CCO)CC3)cc(=O)oc2cc1O,12.5
3,COC(=O)c1c(NC(C)=O)sc2c1CCCC2,2.13
4,Cn1c(=O)cc(OCCCC(=O)NCc2ccc(F)cc2Cl)c2ccccc21,-0.234
5,Cc1ccc(/C=N\NC(=O)CC(=O)NCCc2ccccc2)cc1,6.86
6,CC(C)C(=O)Nc1ccc(N2CCN(C)CC2)c(F)c1,16
7,NNC(=O)CNc1cccc(Cl)c1,12.4
8,O=C(Cc1ccc(Cl)cc1)N1CCN(C(=O)c2ccco2)CC1,4.2
9,CCn1nccc1C(=O)Nc1ccccc1OC,19.3
10,O=[N+]([O-])c1ccc(N2CCN(S(=O)(=O)c3cnc[nH]3)CC2)cc1,-32.2
11,CSc1nnc2c(n1)OC(c1ccc(C(=O)O)cc1)N(C(C)=O)c1ccccc1-2 (centres unmarked),4.29
12,C=C1CN(Cc2ccccc2)S(=O)(=O)c2ccccc21,1.34
13,O=C(CCC(=O)N/N=C/c1ccco1)N/N=C/c1ccco1,19.8
14,Cc1cc(C)n(-c2nc(SCCN(C)C)c3c4c(sc3n2)CCCC4)n1,-0.579
15,CCOc1ccc(C(=O)N[C@H](C(=O)Nc2ccc(OC)c(S(=O)(=O)N3CCOCC3)c2)C(C)C)cc1,9.4
16,CC1Cc2ccccc2N1C(=O)CN(C)CC(=O)Nc1ccc(OC(F)(F)F)cc1 (centres unmarked),-0.294
17,CC(C)n1c2ccccc2c2nnc(SCC(=O)Nc3ccccc3C(=O)O)nc21,16.2
18,COC(=O)/C(=C\c1ccc(O)cc1)c1nc2ccccc2[nH]1,12.9
19,COc1cc2c(C(=O)N3CCN(C4CCCCC4)CC3)cn(CC(C)C)c(=O)c2cc1OC,-13.6
20,CO/N=C(\N)c1ccc([N+](=O)[O-])cc1,-1.65
21,COC(=O)c1ccc(NC(=O)C[n+]2ccccc2C)cc1.[Cl-],10
22,COc1ccc(/C=C/C(=O)NCC(=O)N/N=C/c2cccnc2)cc1,5.75
23,CN(C)CCNc1ncnc2c1sc1nc(-c3ccccc3)c3c(c12)CCCC3,8.06

row,SMILES,"hERG current change (%, negative = inhibition) at 1uM [%]"
1,COc1cc(C(=O)OC(C)CN2CCOCC2)cc(OC)c1OC.Cl (centres unmarked),-2.63
2,Cc1ccc([N+](=O)[O-])cc1S(=O)(=O)N1CCCCC1C(=O)O (centres unmarked),13.5
3,COCCN(CCOC)C(=O)C1CCCN(S(=O)(=O)c2ccc(NC(=O)OC)cc2)C1 (centres unmarked),3.66
4,COc1ccc(CN2C(=O)c3ccccc3C2C(=O)NCc2cccnc2)c(OC)c1 (centres unmarked),9.27
5,CN(C)CCCNC(NC(=O)c1cccs1)C(Cl)(Cl)Cl (centres unmarked),9.37
6,O=C(NCc1ccc(Cl)cc1)C(=O)NCC1OCCCN1S(=O)(=O)c1cccs1 (centres unmarked),3.89
7,Cc1cc(C(=O)N/N=C/c2ccc(C)o2)c2ccccc2n1,-3.79
8,O=C(Nc1ccccc1Cl)c1ccc(Cl)cc1Cl,10.7
9,COc1ccc(-c2nc(CN3CCCCC3c3nccn3C)c(C)o2)c(C)c1C (centres unmarked),0.294
10,S=C(NCc1ccco1)NCC(c1ccco1)N1CCCCC1 (centres unmarked),9.79
11,O=C(NNC(=O)c1ccccc1O)c1ccc(NS(=O)(=O)c2ccc(F)c(F)c2)cc1,11.8
12,CCOc1ccccc1NC(=O)COc1coc(CN2CCc3ccccc3C2)cc1=O,-1.89
13,O=C(O)CCCC(=O)Nc1ccccc1C(=O)N1CCCC1,-1.41
14,CCN(c1ccc(OC)cc1)S(=O)(=O)N1CCCC(C(=O)NCc2ccccc2Br)C1 (centres unmarked),13.2
15,C=C(C)C1CCC(C)=C1CC(C)(C)/C=N\n1cnnc1 (centres unmarked),20.3
16,COc1ccc(NS(=O)(=O)c2ccc(N3CCCC3)c(NC(=S)Nc3ccc(SC(F)F)cc3)c2)cc1,14.2
17,Nc1[nH]ncc1-c1ccccc1,4.87
18,Cc1ccc(C)c(S(=O)(=O)N2CCN(C(=O)CCCc3c[nH]c4ccccc34)CC2)c1,-1.38
19,COc1cc(CNCCCN2CCOCC2)cc(Cl)c1OCC(=O)NC(C)(C)C.Cl,21.6
20,CCOC(=O)N1CCC(NCCNC(=O)c2ccccc2Cl)CC1,11.1
